Source: PMC3428324
These are yes or no findings as the source states them, for the method shown. In cells and extracts the contact can be indirect. Some results given as binding are weak or reduced against the parent protein; the word gives no strength.

The chains behind the UniProt entries cited, without tags or fusion partners.
UniProt P43249: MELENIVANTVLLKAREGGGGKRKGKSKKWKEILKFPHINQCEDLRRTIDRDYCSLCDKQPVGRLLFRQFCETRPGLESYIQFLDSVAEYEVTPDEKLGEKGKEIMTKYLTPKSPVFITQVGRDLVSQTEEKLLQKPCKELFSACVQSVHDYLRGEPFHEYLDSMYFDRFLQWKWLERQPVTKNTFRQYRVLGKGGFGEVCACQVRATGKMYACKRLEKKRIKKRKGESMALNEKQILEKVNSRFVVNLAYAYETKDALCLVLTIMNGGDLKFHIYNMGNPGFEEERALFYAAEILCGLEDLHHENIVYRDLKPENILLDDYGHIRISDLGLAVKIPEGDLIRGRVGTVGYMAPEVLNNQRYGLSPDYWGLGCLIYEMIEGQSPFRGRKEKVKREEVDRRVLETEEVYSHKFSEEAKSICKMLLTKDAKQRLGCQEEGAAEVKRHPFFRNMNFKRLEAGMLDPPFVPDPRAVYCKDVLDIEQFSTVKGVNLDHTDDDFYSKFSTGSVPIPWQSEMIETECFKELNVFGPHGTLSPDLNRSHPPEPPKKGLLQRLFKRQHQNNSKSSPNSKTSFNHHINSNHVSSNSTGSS
UniProt Q16531: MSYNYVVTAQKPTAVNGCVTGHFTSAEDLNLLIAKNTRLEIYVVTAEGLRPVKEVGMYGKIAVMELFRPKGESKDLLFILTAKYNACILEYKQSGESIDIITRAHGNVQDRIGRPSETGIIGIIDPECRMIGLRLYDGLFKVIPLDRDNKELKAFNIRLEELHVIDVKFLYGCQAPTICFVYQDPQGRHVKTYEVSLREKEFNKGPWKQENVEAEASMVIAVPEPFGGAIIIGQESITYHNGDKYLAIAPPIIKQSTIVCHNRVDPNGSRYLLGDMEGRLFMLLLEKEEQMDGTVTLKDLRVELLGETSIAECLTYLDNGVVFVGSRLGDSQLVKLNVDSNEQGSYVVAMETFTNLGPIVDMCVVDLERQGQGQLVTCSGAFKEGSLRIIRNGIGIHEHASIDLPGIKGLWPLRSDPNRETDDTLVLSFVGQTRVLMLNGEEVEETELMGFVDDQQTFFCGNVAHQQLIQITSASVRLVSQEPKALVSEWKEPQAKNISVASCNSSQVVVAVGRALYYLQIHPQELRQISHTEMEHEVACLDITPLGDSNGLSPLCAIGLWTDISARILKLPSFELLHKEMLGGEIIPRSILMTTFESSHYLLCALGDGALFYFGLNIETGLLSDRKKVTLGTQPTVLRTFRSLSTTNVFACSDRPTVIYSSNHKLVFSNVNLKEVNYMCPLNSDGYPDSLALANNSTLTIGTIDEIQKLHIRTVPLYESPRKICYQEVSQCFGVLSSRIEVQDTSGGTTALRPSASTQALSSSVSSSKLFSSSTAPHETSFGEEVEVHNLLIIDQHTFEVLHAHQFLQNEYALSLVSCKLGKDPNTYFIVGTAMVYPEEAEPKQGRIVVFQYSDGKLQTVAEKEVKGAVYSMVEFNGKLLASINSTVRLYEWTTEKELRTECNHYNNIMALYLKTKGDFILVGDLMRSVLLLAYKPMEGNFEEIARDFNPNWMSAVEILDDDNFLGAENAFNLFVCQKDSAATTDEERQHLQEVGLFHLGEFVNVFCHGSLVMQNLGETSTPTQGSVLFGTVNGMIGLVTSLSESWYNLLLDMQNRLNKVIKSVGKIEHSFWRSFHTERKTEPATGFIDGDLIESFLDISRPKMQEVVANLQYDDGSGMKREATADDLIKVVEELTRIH
UniProt P43250: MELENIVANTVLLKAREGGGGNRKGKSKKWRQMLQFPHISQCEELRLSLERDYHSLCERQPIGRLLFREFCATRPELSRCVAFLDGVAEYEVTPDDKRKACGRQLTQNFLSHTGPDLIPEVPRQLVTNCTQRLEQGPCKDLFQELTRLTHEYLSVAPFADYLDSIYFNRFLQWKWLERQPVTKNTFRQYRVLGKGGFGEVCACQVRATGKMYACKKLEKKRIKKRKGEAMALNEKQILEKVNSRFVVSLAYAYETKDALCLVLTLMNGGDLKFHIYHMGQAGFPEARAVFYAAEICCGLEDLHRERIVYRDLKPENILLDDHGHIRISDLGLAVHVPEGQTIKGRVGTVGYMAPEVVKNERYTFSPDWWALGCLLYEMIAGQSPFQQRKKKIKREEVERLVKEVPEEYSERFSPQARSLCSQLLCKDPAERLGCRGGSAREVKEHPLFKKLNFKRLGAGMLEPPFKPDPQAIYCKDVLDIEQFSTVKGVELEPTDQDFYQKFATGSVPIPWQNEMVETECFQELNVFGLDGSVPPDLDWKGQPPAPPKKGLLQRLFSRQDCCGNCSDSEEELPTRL
UniProt P21146: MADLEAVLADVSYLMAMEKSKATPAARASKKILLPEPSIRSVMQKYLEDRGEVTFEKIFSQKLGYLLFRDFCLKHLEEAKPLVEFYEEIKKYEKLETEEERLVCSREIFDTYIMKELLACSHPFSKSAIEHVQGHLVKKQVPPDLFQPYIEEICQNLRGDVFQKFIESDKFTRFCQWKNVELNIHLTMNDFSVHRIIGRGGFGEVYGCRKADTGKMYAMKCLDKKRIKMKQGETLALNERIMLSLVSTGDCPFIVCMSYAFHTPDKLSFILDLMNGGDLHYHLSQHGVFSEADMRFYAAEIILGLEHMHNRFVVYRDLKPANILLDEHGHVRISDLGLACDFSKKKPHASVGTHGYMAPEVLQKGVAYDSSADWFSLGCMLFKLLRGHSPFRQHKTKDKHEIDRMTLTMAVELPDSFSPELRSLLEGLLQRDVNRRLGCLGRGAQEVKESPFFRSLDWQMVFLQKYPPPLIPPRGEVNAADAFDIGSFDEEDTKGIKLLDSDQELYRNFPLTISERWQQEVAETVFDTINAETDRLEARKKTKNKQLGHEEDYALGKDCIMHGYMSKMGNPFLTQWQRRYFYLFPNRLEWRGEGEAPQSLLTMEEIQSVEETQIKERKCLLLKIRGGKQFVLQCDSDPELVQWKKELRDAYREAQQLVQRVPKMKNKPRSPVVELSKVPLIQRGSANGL
UniProt Q13620: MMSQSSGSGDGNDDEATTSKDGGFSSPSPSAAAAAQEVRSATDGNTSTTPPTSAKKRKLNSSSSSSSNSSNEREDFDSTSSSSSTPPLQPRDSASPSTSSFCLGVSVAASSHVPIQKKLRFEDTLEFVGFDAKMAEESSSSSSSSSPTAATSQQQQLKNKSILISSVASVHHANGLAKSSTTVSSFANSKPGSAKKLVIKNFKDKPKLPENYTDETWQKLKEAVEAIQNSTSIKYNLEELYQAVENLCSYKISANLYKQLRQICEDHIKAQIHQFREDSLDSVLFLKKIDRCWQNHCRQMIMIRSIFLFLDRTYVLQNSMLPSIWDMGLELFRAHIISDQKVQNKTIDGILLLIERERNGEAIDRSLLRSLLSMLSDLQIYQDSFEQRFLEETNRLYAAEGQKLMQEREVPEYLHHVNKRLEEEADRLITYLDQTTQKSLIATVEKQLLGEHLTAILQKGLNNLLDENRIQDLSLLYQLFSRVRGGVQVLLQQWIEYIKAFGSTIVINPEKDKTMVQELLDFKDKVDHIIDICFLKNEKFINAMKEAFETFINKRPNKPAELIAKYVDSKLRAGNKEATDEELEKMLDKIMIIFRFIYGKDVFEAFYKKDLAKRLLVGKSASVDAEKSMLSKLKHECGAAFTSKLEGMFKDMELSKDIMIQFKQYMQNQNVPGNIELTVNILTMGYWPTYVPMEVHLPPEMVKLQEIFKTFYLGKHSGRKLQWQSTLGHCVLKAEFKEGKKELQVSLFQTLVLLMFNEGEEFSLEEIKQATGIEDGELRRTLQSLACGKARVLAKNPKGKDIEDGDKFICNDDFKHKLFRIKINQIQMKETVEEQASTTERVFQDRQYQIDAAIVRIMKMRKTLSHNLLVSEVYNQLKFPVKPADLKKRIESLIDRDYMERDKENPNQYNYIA
UniProt Q92466: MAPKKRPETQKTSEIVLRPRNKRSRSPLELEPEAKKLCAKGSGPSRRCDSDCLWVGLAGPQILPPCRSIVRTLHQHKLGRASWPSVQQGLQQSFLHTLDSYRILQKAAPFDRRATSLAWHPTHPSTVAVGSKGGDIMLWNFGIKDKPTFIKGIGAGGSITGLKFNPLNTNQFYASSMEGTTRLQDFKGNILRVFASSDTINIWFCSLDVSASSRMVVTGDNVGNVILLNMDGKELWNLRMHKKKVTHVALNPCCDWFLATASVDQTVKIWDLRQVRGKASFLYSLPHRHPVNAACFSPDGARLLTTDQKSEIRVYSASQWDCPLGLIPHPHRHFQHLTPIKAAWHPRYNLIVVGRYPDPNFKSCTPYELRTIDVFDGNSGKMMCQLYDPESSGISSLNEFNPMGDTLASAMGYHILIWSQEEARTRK
UniProt P34947: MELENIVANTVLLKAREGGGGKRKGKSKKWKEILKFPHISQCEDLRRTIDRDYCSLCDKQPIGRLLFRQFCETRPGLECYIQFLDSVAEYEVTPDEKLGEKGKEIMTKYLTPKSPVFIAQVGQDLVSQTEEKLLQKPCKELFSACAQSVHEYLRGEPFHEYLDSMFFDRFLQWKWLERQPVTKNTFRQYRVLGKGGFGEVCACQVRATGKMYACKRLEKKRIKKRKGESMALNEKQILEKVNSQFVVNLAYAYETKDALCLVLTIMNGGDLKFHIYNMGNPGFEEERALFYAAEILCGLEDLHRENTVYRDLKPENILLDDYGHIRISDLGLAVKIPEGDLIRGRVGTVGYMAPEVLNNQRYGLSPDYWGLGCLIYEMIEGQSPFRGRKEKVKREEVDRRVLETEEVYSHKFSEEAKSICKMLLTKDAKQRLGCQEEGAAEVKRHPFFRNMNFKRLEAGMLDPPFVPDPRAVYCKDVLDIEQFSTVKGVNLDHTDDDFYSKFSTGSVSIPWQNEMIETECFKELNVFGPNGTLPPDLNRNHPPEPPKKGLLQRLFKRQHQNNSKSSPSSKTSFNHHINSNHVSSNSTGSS

Key:
[1] = target: GRK5-Flag (Flag-tagged G protein-coupled receptor kinase 5) (bovine) (UniProt P43249); assay: co-IP; lysate of MDA-MB-231 cells stably expressing GFP or GRK5-Flag; anti-FLAG M2 affinity gel, 4°C, 8 h; Western blotting
[2] = target: GRK5-Flag (Flag-tagged G protein-coupled receptor kinase 5) (bovine) (UniProt P43249); assay: co-IP; lysates of transiently transfected 293 T cells (in Fig. 3D also with shRNA plasmids against DDB1 or CUL4A); the Flag-tagged protein precipitated with anti-FLAG M2 affinity gel, 4°C, 8 h; Western blotting
GRK5-HA (bovine) = GRK5-HA (bovine) (UniProt P43249); assay: co-IP; lysates of transiently co-transfected 293 T cells; the HA-tagged protein precipitated with anti-HA agarose, 4°C, 8 h; Western blotting
DDB1-Flag = DDB1-Flag (UniProt Q16531); assay: co-IP; lysates of transiently transfected 293 T cells (in Fig. 3D also with shRNA plasmids against DDB1 or CUL4A); the Flag-tagged protein precipitated with anti-FLAG M2 affinity gel, 4°C, 8 h; Western blotting
GRK6-Flag (human) = GRK6-Flag (human) (UniProt P43250); assay: as above
GRK2-Flag (bovine) = GRK2-Flag (bovine) (UniProt P21146); assay: as above
[3] = target: damaged DNA-binding protein 1 (DDB1), endogenous (human (endogenous in MDA-MB-231, HUVEC and 293 T)) (UniProt Q16531); assay: co-IP; endogenous DDB1 complexes precipitated from untransfected 293 T cell lysate with the anti-DDB1 antibody; Western blotting with GRK5 antibody; mouse IgG as control

Substance	binding [1]	binding [2]	further results
CUL4B, endogenous (from UniProt Q13620 1-913)	binds	binds	–
DDB1-Flag (from UniProt Q16531 1-1140)	–	–	binding (GRK5-HA (bovine)): binds
Damage DNA binding protein 2 (DDB2), endogenous (from UniProt Q92466 1-427)	binds	binds	–
GRK5 (co-expressed with DDB1-Flag and CUL4A-HA, Fig. 3A and 3B) (from UniProt P43249 1-590) (enzyme)	–	–	binding (DDB1-Flag): binds
damaged DNA-binding protein 1 (DDB1), endogenous (from UniProt Q16531 1-1140)	binds	binds	binding (GRK6-Flag (human)): binds; binding (GRK2-Flag (bovine)): no binding
endogenous GRK5 (from UniProt P34947 1-590) (enzyme)	–	–	binding [3]: binds
